The values that follow come from PubChem BioAssay AID1963576 (National Center for Advancing Translational Sciences (NCATS), 2024).

Screen size: about 46,000 compounds; about 60 (0.1%) were called active. Roughly 3% stayed inconclusive and do not appear here. Calls come from the whole dose curve; as a rule, active = well fitted inhibition curve with a large enough effect; inconclusive = small, poorly fitted or top-dose-only effect; inactive = no such curve, though single readings can be large or run the other way. This is one part of the list.

A short description of this assay: Primary qHTS assay for Inhibitors of ovarian cancer metastasis using an organotypic tumor microenvironment (TME) model.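 For activity change, negative = inhibition: plate controls were DMSO wells for no effect and tomatine positive control wells for full effect.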 Note: nearly all actives have a fitted effect of over 65% in size. The settings on record: SKOV3ip1-GFP adhesion/invasion on 3D omental model, fluorescence; series mostly up to 45.8 µM; activity change, negative = inhibition: at the top concentration. The method in brief:
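Primary human omental fibroblast/mesothelial 3D culture pre-formed 48 h. SKOV3ip1-GFP cells added with compounds (0.36-46 umol/L), incubated 2 h RT/16 h 37 C, fixed; GFP cells quantified at 488/509 nm.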
Background: Quantitative high-throughput screening tests each substance at several concentrations.
As to `COc1ccc(OC)c(CCNC(=O)c2cnn(-c3ccccc3Cl)c2C2CCN(C(=O)OC(C)(C)C)CC2)c1`, the “activity change, negative = inhibition” value is inactive: 1.32%.
As to `COc1ccc(NC(=O)c2cnc(Nc3ccc(C)c(Cl)c3)c3ccccc23)cc1OC`, the compound was classed as inactive.
As for `Cc1ccc(C)c(Cn2c(=O)cc(C)c3c(C)nn(-c4cccc(F)c4)c32)c1`, the “activity change, negative = inhibition” value is inactive: 8.13%.
`COc1ccccc1NC(=O)C1=C(C)Nc2nnnn2C1c1cc(Br)c(O)c(OC)c1` (stereo unspecified): the “activity change, negative = inhibition” value is inactive: 22.4%.
Still for that read-out and setting: as for `COc1cccc(-n2c(=O)c3c(C)c(C)sc3n(CC(=O)NCc3ccccc3)c2=O)c1`, the figure is inactive: -9.74%; as for `COc1ccc(-c2nsc(NC(=O)C(C)Oc3ccc(Cl)c(C)c3)n2)cc1` (stereo unspecified), inactive: -12.5%; as for `N[C@@H](CC(=O)N1CCn2c(nnc2C(F)(F)F)C1)Cc1cc(F)c(F)cc1F`, inactive: -2.01%.
For the compound `COc1ccc(-c2nc(SCc3cc(=O)c4cc(C)ccc4[nH]3)n[nH]2)cc1`, the “activity change, negative = inhibition” value is inactive: 14.9%.
The same measure, in the same setting: under `COc1ccc(-c2nc(C)c(CCNC(=O)C(=O)Nc3cc(C)cc(C)c3)s2)cc1OC` stands inactive: -0.728%; under `COc1ccc(NC(=O)c2ccc3c(SCC(=O)O)c4c(nc3c2)CCC4)c(OC)c1`, inactive: -10%; under `CCOc1ccccc1N1CC(c2nc3ccccc3n2Cc2c(C)cc(C)cc2C)CC1=O` (stereo unspecified), inactive: -1.63%.
Still for that read-out and setting: under `Cc1sc2ncn(CC(=O)N3CCN(c4cccc(Cl)c4)CC3)c(=O)c2c1S(=O)(=O)N1CCN(c2ncccn2)CC1` stands inactive: 67.1%.
On to `CCCN(CCC)CCNC(=O)c1ccc2c(c1)NC(=O)C(CS(=O)(=O)Cc1cccc(Br)c1)N2` (stereo unspecified), for which the “activity change, negative = inhibition” value is inactive: 6.73%.
Still for that read-out and setting: as for `Cc1cccc(N2CCN(C(=O)c3cc4c(=O)n(C)c5ccccc5c4s3)CC2C)c1` (stereo unspecified), the figure is inactive: 8.07%.
Regarding `Cc1ccc(NC(=O)Cn2nc(C)n3cccc3c2=O)c(C)c1`, the result was inactive.
For the compound `Cc1ccccc1C(=O)Nc1c(C)nc(Nc2ccccc2)nc1Nc1ccccc1`, the “activity change, negative = inhibition” value is inactive: 8.7%.
Still for that read-out and setting: as for `CCOCCCNC(=O)C(c1ccc(OC)cc1)N(Cc1ccc2c(c1)OCO2)C(=O)c1ccccc1O` (stereo unspecified), the figure is inactive: 1.19%.
Still for that read-out and setting: as for `CC(=O)N1c2ccc(S(=O)(=O)NCC3CCC(C(=O)Nc4cccc(C)c4C)CC3)cc2CC1C` (stereo unspecified), the figure is inactive: 1.26%; as for `COc1ccc(N2CC(C(=O)NCc3nnnn3-c3ccc(C)c(C)c3)CC2=O)cc1` (stereo unspecified), inactive: -3.19%.
With `COc1ccc(-c2nnc3n2N(C(C)=O)C(c2ccc(Cl)c(Cl)c2)=C(C(C)=O)S3)cc1`, the call was inactive.
As for `O=C(Cn1c(SCCOc2ccc(Cl)cc2)nc2ccccc21)N1CCCCC1`, the “activity change, negative = inhibition” value was inactive: 19.6%.
Still for that read-out and setting: as for `COc1ccc(CCNC(=O)C(=O)NCC(c2ccco2)S(=O)(=O)c2ccccc2)cc1` (stereo unspecified), the figure is inactive: -17.7%.
As for `Cc1cccc(N2C(=O)CSC23C(=O)N(CC(=O)NCc2ccccc2Cl)c2ccccc23)c1` (stereo unspecified), the outcome was inactive.
On to `COc1ccccc1NC(=O)Cn1c(=O)c(CNc2ccc(C)cc2)cc2cc3c(cc21)OCCO3`, for which the “activity change, negative = inhibition” value is inactive: -18.9%.
Still for that read-out and setting: as for `CCCOc1ccc(C2CC(=O)Nc3c2c(C)nn3-c2nncc(-c3cccc(OC)c3)n2)cc1OC` (stereo unspecified), the figure is inactive: 3.6%; as for `COc1cccc(C2=CC(c3cc(Br)ccc3F)n3nnnc3N2)c1` (stereo unspecified), inactive: -23.2%; as for `COc1ccc2cc3cc(C(=O)N4CCN(c5ccccc5F)CC4)oc3nc2c1`, inactive: 9.88%.
On the same count and under the same terms, under `COC(=O)c1ccc(NC(=O)N2CCN(Cc3cc(=O)n4nc(-c5ccc(C)cc5)sc4n3)CC2)cc1` stands inactive: -2.02%.
For the compound `COc1ccc(-c2noc(-c3ccc(N4CCN(c5ccccc5)CC4)c([N+](=O)[O-])c3)n2)cc1`, the “activity change, negative = inhibition” value is inactive: -8.2%.
With `CC(CNC(=O)CN1C(=O)c2cccnc2Oc2ccc(Cl)cc21)c1ccccc1` (stereo unspecified), the “activity change, negative = inhibition” value is inactive: 1.11%.
As for `Cc1nc2c(c(C)c1CCC(=O)NCc1ccc(Cl)cc1)c(=O)n(C)c(=O)n2C`, the “activity change, negative = inhibition” value was inactive: 13.3%.
Still for that read-out and setting: under `COc1cccc(OC)c1C(=O)Nc1nc2c(s1)CCc1ccccc1-2` stands inactive: 13.5%.
For `Cc1ccc(NC(=O)Nc2sc3nc4n(c(=O)c3c2C)CCC(C)CC4)c(Cl)c1` (stereo unspecified), the outcome was inactive.
Consider `Cc1cccc(NC(=O)c2ccc3c(c2)CCN3S(=O)(=O)c2ccccc2)c1C`, for which the “activity change, negative = inhibition” value was inactive: 1.45%.
Still for that read-out and setting: as for `CCn1c(=O)cc(OCC(=O)N2CCN(c3ccc(OC)cc3)CC2)c2ccccc21`, the figure is inactive: -7.69%.
The same measure, in the same setting: as for `COc1ccc(NC(=O)CCNS(=O)(=O)c2cccc3nsnc23)cc1Cl`, the figure is inactive: -16.7%; as for `Cc1cccc(-n2c(C)nc3cc(C(=O)NCCC4=CCCCC4)ccc32)c1`, inactive: 5.97%.
On the same count and under the same terms, as for `O=C(NCc1nc2ccccc2[nH]1)c1c(F)cccc1F`, the figure is inactive: -6.84%; as for `O=C(CSc1nc(Nc2ccc(F)cc2)c2ccccc2n1)c1ccc(F)cc1`, inactive: -5.01%.
Consider `COc1ccc(CCNC(=O)c2cc3sccc3n2Cc2ccc(Cl)cc2)cc1OC`, for which the “activity change, negative = inhibition” value is inactive: -25.1%.
For `CCOc1ccccc1CN1CCc2nc(Nc3ccc4c(c3)OCCO4)ncc2C1`, the “activity change, negative = inhibition” value is inactive: 2.74%.
For `O=C(NCCc1ccccc1Cl)c1ccc2c(=O)n(-c3ccccc3)c(=O)[nH]c2c1`, the “activity change, negative = inhibition” value is inactive: -9.69%.
Same read-out and setting: under `CCCS(=O)(=O)N1CC(=O)N(c2ccc(C)cc2)C(C)(C(=O)NC2CCCCCC2)C1` (stereo unspecified) stands inactive: -2.04%; under `Cc1cc(C)c2nc(NC(=O)c3ccc(S(=O)(=O)N4CCc5ccccc54)cc3)sc2c1`, inactive: 1.43%; under `Cc1ccc(CNc2ncnc3onc(-c4ccc(F)cc4)c23)cc1`, inactive: -7.32%.
As for `CCOc1ccc(NC(=O)Cn2c(=O)c(CNc3ccc(CC)cc3)cc3cc4c(cc32)OCO4)cc1`, the compound was called inactive.
